# Experimental data from the supplement of paper PMC12632987.
# In all, about 2,300 sequences were measured (“median log2 fold change of GCK-ALFA target abundance (FLAG IP / Myc IP barcode read proportion)”: median about 0.095, lowest 2% from about -0.47 on). This is one part of the list.
# B1: LC3A_free_0_2099 (protein)
# chain: MTTVVEVLGIIDNENDKEAAEAIAEELKKLGKKLSEEKGWKVTVELKKVNGSYVITVTIEGKGMSIEEGLEIADEIADKIERLAKEHGVEVTIYTSVYEE
# B2: LC3A_147_407 (protein)
# chain: YRTEVDIDILSKNAEEEIVEFFEKLKKELEEKGYKVELEIEVEELEGGETYIRVRIIVEAETKEEAEEAANFILDEIDKLEEELKDKILGSIISVEIIDE
# B3: LC3A_free_46_2312 (protein)
# chain: VKANITIDLLHEDKEVLEKAVKELVEKIKEIAKKYNLKVEIKVEFSKDEDGSHFARIEVTLTGETKEDIEAAVNEIIDAIDEIAEKYGVSYIISVEIIDE
# B4: LC3A_free_8_2474 (protein)
# chain: KVQELVNEITKLLDELEEKTTKKAKELGVDPLKILELELEIGAAKADIISASDKSIEEVRKIVEEEMEEILKIAKELGEEIAKLVEETKKKILELIEKAE
# B5: LC3A_28_701 (protein)
# chain: SAIEEQLARAEEIVEEAVAAGEDALIEITITPETTAEDVDLILERVREMAERMSEVGKLYVVVDVEAGVAQENITRLADGLDEIEEEIPTVSAVIALDED
# B6: LC3A_147_448 (protein)
# chain: MKYEIDVDALFRNDRELAEELAEKLKEIAEKYGGEVEVELREEQVSPTTTEYYLDVTITFEDEEKAKEAEKEISELLDETAKAHPDKFLGAILSFEEVEE
# B7: LC3A_147_485 (protein)
# chain: MEVKIDLLVKGKETVEELKKKMEETKKELEKEGIKVKLEIKVEEIEPGVYYVEITAKIEAPTKEEEKKAAQKVIDTVEEFEEENKDKVLGSLISVEETEK
# B8: LC3A_28_1041 (protein)
# chain: SALEADAEAALAEAERQLAEGDEAVVTLTVEDLPTEEAAAIVRAFLERLRELSREHGGKKIHVVIDYDGDQETLDALADIAEEAEEEDPNLTVIIAYDDK
# B9: LC3A_28_993 (protein)
# chain: SALEEQLEAALAEAKAAAAAGEPTVITIKVPGSANQEDIELVIEKLEEIAEILKDVPGSAIVIDLDGKLDQELRDLIIDKAEEIEEKYPNVTVIIALDEE
# B10: LC3A_3_1763 (protein)
# chain: MEEFIEEAAKRLKEAGASEELIEVASEALRLLLERGLEETAEEFVEALLELLKKSEELALDLARDVLELLRTSTLSPEELAAAVREEINAALAEAEIEEL
# B11: LC3A_147_499 (protein)
# chain: YKVVVDIDILMKNKPELVEKLVEEIKKELEKKGFKVEYEIKHEKVDENTVYSHITITIEAPTKEEAEEAANLVIDMIDEFEEKNKEDILGSLISVEIEEV
# B12: LC3A_free_39_2186 (protein)
# chain: SAAEAEAALAELLALAAEEGEETKALAEELVALIGRRLEHLKRLLELARRLKEEGVDLREALREALALARELAAQGKSPEEIAEAVLEHLQDRIDLIPID
# B13: LC3A_free_8_2510 (protein)
# chain: NKEALAKTASTKFDEIEELVEKLGKEDGLSELEILDILLVIGAEHQDVLDAIEDGPEAALKKAEEAKKEILKELKPLSEESRKKIEEKLDELIEELKKII
# B14: LC3A_17_543 (protein)
# chain: KEELKEKLEKLLKELEKLVKELEKYDPEKAKELKKKLKEAKKLLKEGKLEEAAKLLAEAAREAAEAFEELEPEKGVEASVLSMEASGLELEAEGILLKLE
# B15: LC3A_3_1361 (protein)
# chain: MEELIEETLAFLREAGKSEETLEAVRETLLALKERGYEEAAKTFVELLRELKDLPDELLLAFAEDVLEAVTKEDLSEEELIEFIKEEAAVARHEAEIIEL
# B16: LC3A_17_592 (protein)
# chain: SEEIKKEIEELLKELKKLIKKMKELGIPEAKEIEKLLKEAEKALKEGDLKKAAELLAKAADLAADALEEKEEELGSEASVLEMEANGLELRAIGILLKLD
# B17: LC3A_3_1490 (protein)
# chain: REELLERMRAVLEARGASPEQIAEVLEAAERLLELGYEETVETLIELFEANPDLDPLDIVTAVLITLEVAEEEDLSEEELVERAREIFENVREIEALDEN
# B18: LC3A_3_1813 (protein)
# chain: LDEELKETLELLKKAGASEETLKAVKEAAEALKEKGYENSLKTFLELMRKNKDLPSELLLAFAKDVLELIKTSDLDEESMTEEIKKIASTYENEAEIIEL
# B19: LC3A_3_1768 (protein)
# chain: MEEKVEEAKKKLKEAGADEETIETAAEAVKLLLERGLEETAEEFLKTLLELLKKSKELARDLAKDVLEILKTSDLSPEEIAEKVREEIKNYLLESEIIEL
# B20: LC3A_28_902 (protein)
# chain: SPAIASAEAALAEVKAAVAAGDQEPLVLEVKAPSKEEDVEKFLELLTQIAKEASQLKGVSIIIDIDESVSEENRNKIIDHAEELEKKYPNVTIIIALPEE
# B21: LC3A_free_8_2554 (protein)
# chain: ISEEQKAKISEVLDKAEEEIVKKAKEMGVSEEEINELEALMGFLLQDVLDALEEGPEAALKAFEEESKLIVEYAKELGEELAKEVKKVLEEAKKEIEKIL
# B22: LC3A_147_390 (protein)
# chain: YKTVVDIDILTKNAEEEVIESFKKLVEELKKKGYEVELEIEVEKIDENTTYIHIKITIKAETKEKAEEAANEVLDHYDELEEKLKDKILGSLISVEIEEE
# B23: LC3A_28_1145 (protein)
# chain: SAGVEAAKAQLDADAEADKNEPEALLTANISSTTTVEDAKEIMDHVEEIVEKLKDKKKIFVLVNFEEPVSQEVLDTAVEKGEEIEKKFPNVNVIIALPED
# B24: LC3A_28_962 (protein)
# chain: SALDEQLEATLAAAREAAARGEARVFTINVPGTADQEDIEKVIEALEEIAELLKDVPGSAIVINVDAGVKQEHIDKLAEKAEEIEKKYPNITVIIALDED
# B25: LC3A_28_1081 (protein)
# chain: SAIEEQVAAAKAELEAAIARGEEAVLTLTLTEDATEEDVATLVAGMKELAELAKNGKKTSIVVDLDGDIPQEHIDTIADAAEEIEKEVPNVTVIIALDEN
# B26: LC3A_3_1415 (protein)
# chain: MEEKLKETLEKLKEAGHSEETLEALKELVDKLKELGAEEEAERVLELVLENKDISSEELLEVLKEALRLLTEEKLSPEEVVKELERELRIARNAQEIIEL
# B27: LC3A_3_1698 (protein)
# chain: MEELLKEAEKILEEKGRSEETKEAALAALTALLERGYEEAAKTLLELLKESEDLSDEILKAFFEDVLHYVQTEKKNEEEVIKFIKEEYEIAKSEEEIEEL
# B28: LC3A_59_2034 (protein)
# chain: DAEIEAYVARLRAAKDDDEAMAEIILEGFERFKDDPEKLARLKEALVAALVELGLLSEELARRLMEEAERIVEEEEDREEALKRILEELRVARNEEEIEE
# B29: LC3A_28_1243 (protein)
# chain: SAVEEQIAAARAAVKAAVAAGEEALVELKVTGETTQEDVDKIIAAMKEIAELGKDLPALDIIIDVDKDVPQEHIDKLADAAEEIEKKYPNVTVIIALEER
# Molecular target: MAP1LC3A, Q9H492
# Assay: median log2 fold change of GCK-ALFA target abundance (FLAG IP / Myc IP barcode read proportion) (log2 ratio); each designed protein is fused to an ALFA-tag nanobody in HEK293 cells to bring the named protein to FLAG-tagged glucokinase (GCK); Myc marks an untargeted standard; higher = target protein stabilised (more abundant)
# Details: target protein: 3xFLAG-MCP-GCK-ALFA reporter; HEK293 landing pad (RPLP)
# Procedure, shortened: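 HEK293 landing-pad cells received a recombined binder library fused to the ALFA nanobody and were induced with 2 μg mL^−1 doxycycline, then transfected with a plasmid encoding a FLAG-tagged target and a Myc-tagged standard. Lysates were collected after 48 h for anti-FLAG and anti-Myc immunoprecipitation, and the circular RNA barcodes were reverse transcribed, amplified and sequenced. Target abundance for each binder is the median log2 ratio of FLAG to Myc barcode read proportions. Barcodes had to reach a proportion of at least 10^−7 in both replicates, each binder needed at least 3 barcodes per replicate, a pseudocount of 10^−6 was applied, and the two replicates were pooled.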
row,Binder,median log2 fold change
1,B1,-0.379
2,B2,-0.124
3,B3,-0.0148
4,B4,0.318
5,B5,-0.383
6,B6,-0.322
7,B7,0.0781
8,B8,0.0383
9,B9,-0.291
10,B10,0.21
11,B11,-0.0118
12,B12,0.302
13,B13,0.0552
14,B14,0.312
15,B15,0.16
16,B16,-0.636
17,B17,-0.342
18,B18,0.292
19,B19,0.25
20,B20,-0.247
21,B21,-0.0712
22,B22,-0.201
23,B23,0.0664
24,B24,0.184
25,B25,-0.0197
26,B26,0.237
27,B27,0.104
28,B28,0.131
29,B29,0.0677
